The values that follow come from paper PMC4964934.

Sequences of proteins named here, by UniProt entry; tags and fusion partners are left off. A change or cut given only in a name is not applied to a line headed by its entry.
UniProt P40692: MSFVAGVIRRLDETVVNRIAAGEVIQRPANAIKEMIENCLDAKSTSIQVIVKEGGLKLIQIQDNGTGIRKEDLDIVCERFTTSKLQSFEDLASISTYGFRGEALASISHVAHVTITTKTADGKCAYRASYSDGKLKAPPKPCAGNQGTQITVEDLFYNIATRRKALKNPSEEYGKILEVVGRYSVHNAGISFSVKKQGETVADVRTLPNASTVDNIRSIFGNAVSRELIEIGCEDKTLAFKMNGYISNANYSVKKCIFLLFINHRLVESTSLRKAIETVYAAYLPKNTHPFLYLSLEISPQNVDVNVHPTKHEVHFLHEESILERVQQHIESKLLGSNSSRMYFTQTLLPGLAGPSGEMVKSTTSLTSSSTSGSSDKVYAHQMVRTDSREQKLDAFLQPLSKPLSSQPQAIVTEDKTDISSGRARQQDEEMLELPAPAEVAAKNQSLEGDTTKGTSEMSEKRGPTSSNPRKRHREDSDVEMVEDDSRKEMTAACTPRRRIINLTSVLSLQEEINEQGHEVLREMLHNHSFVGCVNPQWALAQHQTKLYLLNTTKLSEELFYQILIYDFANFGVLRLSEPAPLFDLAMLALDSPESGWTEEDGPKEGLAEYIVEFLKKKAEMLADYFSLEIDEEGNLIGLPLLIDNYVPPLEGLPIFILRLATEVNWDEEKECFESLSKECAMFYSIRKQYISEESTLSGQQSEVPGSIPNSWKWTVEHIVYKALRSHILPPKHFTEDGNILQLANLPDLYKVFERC
UniProt Q9Z2D7: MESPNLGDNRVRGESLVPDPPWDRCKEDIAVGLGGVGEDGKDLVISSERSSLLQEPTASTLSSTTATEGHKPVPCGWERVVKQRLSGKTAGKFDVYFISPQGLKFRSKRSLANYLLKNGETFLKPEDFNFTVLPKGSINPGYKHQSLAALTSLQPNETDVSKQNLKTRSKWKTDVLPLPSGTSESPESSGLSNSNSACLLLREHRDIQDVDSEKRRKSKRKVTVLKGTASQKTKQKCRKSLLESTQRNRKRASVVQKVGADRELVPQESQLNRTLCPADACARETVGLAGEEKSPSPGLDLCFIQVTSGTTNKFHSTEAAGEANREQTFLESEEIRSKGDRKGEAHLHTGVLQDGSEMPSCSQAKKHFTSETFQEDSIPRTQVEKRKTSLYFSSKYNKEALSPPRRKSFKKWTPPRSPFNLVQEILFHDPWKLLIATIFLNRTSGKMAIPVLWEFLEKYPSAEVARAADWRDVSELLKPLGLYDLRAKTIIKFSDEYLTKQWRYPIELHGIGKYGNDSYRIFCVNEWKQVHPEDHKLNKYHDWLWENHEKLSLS
UniProt O95243: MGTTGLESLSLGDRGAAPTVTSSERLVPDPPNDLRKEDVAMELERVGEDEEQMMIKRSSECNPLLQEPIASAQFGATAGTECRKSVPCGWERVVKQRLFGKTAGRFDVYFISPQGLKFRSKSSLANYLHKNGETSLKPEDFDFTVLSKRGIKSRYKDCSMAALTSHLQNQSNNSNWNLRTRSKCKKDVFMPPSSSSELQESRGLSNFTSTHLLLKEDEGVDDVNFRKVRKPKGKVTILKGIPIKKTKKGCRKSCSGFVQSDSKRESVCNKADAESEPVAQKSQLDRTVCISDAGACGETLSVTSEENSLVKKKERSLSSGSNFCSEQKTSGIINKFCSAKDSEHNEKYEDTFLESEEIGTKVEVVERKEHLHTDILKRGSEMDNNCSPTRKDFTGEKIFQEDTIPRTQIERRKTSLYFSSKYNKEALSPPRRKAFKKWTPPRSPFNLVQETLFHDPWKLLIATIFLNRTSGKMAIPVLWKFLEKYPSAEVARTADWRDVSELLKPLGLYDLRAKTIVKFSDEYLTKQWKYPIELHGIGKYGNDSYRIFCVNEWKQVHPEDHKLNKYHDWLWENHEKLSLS
UniProt O75475: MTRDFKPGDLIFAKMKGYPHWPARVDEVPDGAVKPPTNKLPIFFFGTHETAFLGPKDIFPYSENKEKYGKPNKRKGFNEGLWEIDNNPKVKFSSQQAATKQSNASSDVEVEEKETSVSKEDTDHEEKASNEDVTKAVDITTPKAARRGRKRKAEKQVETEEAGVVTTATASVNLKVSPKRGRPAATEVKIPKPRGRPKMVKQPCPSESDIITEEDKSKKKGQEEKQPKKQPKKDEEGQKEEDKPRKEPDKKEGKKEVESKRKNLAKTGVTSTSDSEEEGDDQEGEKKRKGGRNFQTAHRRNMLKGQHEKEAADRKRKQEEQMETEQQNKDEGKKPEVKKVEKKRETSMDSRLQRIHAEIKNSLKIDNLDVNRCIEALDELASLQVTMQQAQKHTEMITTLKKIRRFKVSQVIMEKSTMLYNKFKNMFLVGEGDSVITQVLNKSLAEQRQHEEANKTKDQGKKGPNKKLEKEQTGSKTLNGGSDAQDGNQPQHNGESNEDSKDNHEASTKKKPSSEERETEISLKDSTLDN
UniProt Q93009: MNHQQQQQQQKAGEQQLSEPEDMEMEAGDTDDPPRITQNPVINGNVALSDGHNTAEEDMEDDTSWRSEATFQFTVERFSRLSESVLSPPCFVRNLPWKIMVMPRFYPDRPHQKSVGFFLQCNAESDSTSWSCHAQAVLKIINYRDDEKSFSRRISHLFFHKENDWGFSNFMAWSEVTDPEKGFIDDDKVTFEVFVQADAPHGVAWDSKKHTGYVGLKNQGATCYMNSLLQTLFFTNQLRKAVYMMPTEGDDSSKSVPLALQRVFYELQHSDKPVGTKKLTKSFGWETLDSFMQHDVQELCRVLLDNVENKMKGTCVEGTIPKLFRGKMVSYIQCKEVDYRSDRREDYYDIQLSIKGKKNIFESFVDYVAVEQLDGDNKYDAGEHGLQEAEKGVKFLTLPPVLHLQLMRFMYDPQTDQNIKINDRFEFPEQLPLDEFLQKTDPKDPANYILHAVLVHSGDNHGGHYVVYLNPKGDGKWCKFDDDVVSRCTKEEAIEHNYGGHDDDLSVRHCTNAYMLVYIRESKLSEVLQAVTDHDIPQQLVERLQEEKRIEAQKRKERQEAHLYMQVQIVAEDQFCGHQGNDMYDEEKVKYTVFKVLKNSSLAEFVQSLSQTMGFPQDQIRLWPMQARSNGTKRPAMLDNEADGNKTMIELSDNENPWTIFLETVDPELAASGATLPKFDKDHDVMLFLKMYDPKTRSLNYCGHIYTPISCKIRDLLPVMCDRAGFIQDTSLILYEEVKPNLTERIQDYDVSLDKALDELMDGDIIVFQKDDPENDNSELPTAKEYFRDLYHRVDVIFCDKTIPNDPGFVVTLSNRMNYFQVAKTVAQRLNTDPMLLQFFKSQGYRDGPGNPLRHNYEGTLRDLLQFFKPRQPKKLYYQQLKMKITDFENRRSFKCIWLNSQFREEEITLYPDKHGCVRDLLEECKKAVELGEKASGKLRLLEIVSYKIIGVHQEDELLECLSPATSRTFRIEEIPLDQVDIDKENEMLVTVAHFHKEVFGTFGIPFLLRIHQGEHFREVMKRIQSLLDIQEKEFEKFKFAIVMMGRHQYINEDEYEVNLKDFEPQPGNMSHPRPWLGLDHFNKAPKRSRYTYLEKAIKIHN

No constants are given. Whether binding was seen depends on the method and setting. In cells and extracts the contact can be indirect. Some entries that bind do so weakly or less than the wild type. For part of these data: Where a sequence is shown, tags or fusion partners need not be part of it.

For test [1], the target named is T1, FLAG-UHRF1, FLAG epitope-tagged human UHRF1 (human) (UniProt Q96T88).
T1 sequence: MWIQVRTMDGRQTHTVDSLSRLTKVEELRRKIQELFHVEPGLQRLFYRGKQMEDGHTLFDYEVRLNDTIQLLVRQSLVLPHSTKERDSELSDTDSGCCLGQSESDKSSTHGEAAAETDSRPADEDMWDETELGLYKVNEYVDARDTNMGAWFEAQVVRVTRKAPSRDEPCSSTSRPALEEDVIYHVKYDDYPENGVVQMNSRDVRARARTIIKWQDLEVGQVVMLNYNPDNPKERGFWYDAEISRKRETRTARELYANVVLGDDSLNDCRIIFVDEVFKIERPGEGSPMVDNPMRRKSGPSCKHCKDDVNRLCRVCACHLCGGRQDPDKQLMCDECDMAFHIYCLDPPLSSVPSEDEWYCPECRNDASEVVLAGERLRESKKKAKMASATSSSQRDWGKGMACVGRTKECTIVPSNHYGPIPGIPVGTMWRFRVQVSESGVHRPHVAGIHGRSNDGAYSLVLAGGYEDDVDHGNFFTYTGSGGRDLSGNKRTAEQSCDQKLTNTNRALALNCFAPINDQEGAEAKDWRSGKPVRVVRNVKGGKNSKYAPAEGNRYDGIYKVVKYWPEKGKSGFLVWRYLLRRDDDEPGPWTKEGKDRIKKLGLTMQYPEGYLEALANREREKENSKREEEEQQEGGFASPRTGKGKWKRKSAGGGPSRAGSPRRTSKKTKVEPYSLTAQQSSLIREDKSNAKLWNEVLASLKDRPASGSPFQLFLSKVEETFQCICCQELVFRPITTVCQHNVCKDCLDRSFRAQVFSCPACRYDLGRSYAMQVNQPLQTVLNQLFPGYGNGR
In words: co-IP; reciprocal direction: IP of GFP-Mlh1 or FLAG-UHRF1 from 293T nuclear lysate mixed with purified 6HIS-TF-UB hMBD4 mutants (500 µg each); MBD4 mutants detected by Western blot; only the binder purified. In general terms: In western blotting, separated proteins are transferred to a membrane and probed.

The target in test [2] is GFP-MLH1 (UniProt P40692). The description is as above.
In test [3] the target is GFP-mMBD4, GFP epitope-tagged mouse MBD4 (mouse) (UniProt Q9Z2D7). In words: co-IP; ectopic proteins in HEK293T; nuclear extract without MNase (no chromatin digestion); GFP beads (ChromoTek), 2 h at 4°C; Western blot.
The target of test [4] is T1, FLAG-UHRF1, FLAG epitope-tagged human UHRF1 (human). The test is described as follows: co-IP; ectopic proteins in HEK293T; MNase-treated nuclear extract (300 mM NaCl); anti-FLAG sepharose beads, 2 h at 4°C; Western blot.
The target in test [5] is FLAG-hMBD4 (SF-TAP-hMBD4), human full-length MBD4 (human) (UniProt O95243). The description is as above.

Consider “6HIS-TF-UB-hMBD4 mutant 2 (MBD and intervening region, amino acid 1-408) (from UniProt O95243 1-408) (domain or fragment)”, for which the binding result in test [1] and in test [2] was “binds” each time.

As for “6HIS-TF-UB-hMBD4 mutant 3 (glycosylase domain and its known upstream interaction region, amino acid 408-580) (from UniProt O95243 408-580) (domain or fragment)”, the binding result in test [2] is “binds”.

With “6HIS-TF-UB-hMBD4 mutant 4 (intervening region and the downstream interaction region, 156-455) (from UniProt O95243 156-455) (domain or fragment)”, the binding entry was “binds weakly” in test [1] and “binds” in test [2].

For the substance FLAG-p75 (from UniProt O75475 1-530), the binding entry in test [3] is given as “no binding”.

“GFP-mMBD4, GFP epitope-tagged mouse MBD4 (from UniProt Q9Z2D7 1-554)”: the binding result in test [4] is given as “binds”.

In the case of “MCherry-USP7 (from UniProt Q93009 1-1102)”, the binding result in test [5] and in test [3] was “binds” throughout.
